First the molecules themselves.
B1: LINE1-mini (parent)
chain: GGCAGAGCUCAACACAGCGUGGCAAAGUGGCUGUGGCUAGACUGCC

Read counts are not given, so values of variants with three or more changes are uncertain.

The variants in this data set derive from B1. The data set is described as follows: self-cleavage, relative activity (ratio to wild type); higher = more cleavage; in vitro, sequencing; the parent is a self-cleaving ribozyme.
Consider GGCAGAGCUCGACCCAAGGUGGCACAGUGGCUGUGGCUAGGCUGCC [A11G A14C G17A C18G A25C A41G], for which the self-cleavage worked out at 0.01. Under GGCAGAGCUCGACCCAGCGUGGCAAAGUAGCUGUGGCUAUACUGCC [A11G A14C G29A G40U] stands 0.01; under GGCAGAGCUCGACACCGCGUGGCAAAGUGGCUGUGGCUAUACUGCC [A11G A16C G40U], 0.01; under GGCAGAGCUCGACACAGCGUGGCAACGUGGCUGUGGUUAAACUGCC [A11G A26C C37U G40A], 0. Under GGCAGAGCUCGACACAGCGUGGCGAAGUGGCUGUGGAUAGACUGCC [A11G A24G C37A] stands 0.01; under GGCAGAGCUCCACACAGCGCUGCAGAGUGGCUUUGGCUAGACUGCC [A11C U20C G21U A25G G33U], 0.03. Then GGCAGAGCUCCACACAGCGAGGCAAAGUGGCUGUGGCUAGACUGUC [A11C U20A C45U], with 0.01; and GGCAGAGCUCCACACAGCGUGGCAAAGUGGCUGUGACUAGGCUGCC [A11C G36A A41G], with 0.04. As for GGCAGAGCUCGUCACAGCGUGGCAAAGUGGCUGUGACUAGACUGAC [A11G A12U G36A C45A], the self-cleavage was found to be 0. Then GGCAGAGCUCCACACAGCGAGGCAAAGUGGCUGGGGCUAGACUGCG [A11C U20A U34G C46G], with 0. For GGCAGAGCUCCACACAGCGAGCCAAAGUGGCUGUGGCUAGACUGCC [A11C U20A G22C], the self-cleavage came out at 0.01. Regarding GGCAGAGCUCGACACGGCGUGCCAAAGUGGCUGUGGCUAGACUGCU [A11G A16G G22C C46U], the self-cleavage stood at 0. For GGCAGAGCUCCACACAGCGUGGCAAAGUGACUGUGGCUCGACUGCC [A11C G30A A39C], the self-cleavage was 0.01. Under GGCAGAGCUCGACGCAGCGUGGCAAAGUGGCUGUGGCUAGACUGAC [A11G A14G C45A] stands 0.05. As to GGCAGAGCUCGACACAGCGUGGCCAAGUGGCUUUGGCUAGACUGCC [A11G A24C G33U], the self-cleavage was found to be 0.01.

In the case of GGCAGAGCUCGACACAGCGUGGCUCAGCGGCAGUUGCUAGGCUUCC [A11G A24U A25C U28C U32A G35U A41G G44U], the self-cleavage came out at 0.01. Consider GGCAGAGCUCGACACGGCGGGGCAAAGUGGAUGUGGCUAGACUGCC [A11G A16G U20G C31A], for which the self-cleavage was 0.01. Under GGCAGAGCUCCACACAGCGUGGCAAAGUGGCGGUAGCUAGACUGCC [A11C U32G G35A] stands 0.02. On to GGCAGAGCUCCACACAGCGUGGCAAAGUGGCUGUGGCGUGACUGCC [A11C U38G A39U], for which the self-cleavage was 0.01. Turning to GGCAGAGCUCGGCACAGCGUGGCAAAGUGGCUGUGGGUAGACUGCC [A11G A12G C37G], the self-cleavage came to 0. Under GGCAGAGCUCGAGACAGUGUGGCAAAGUGGCUGUGGCUAGACUGCC [A11G C13G C18U] stands 0.01; under GGCAGAGCUCGACCCAGCGUAGCACAGUGGCUUUGGCUAGACUGCC [A11G A14C G21A A25C G33U], 0.01; under GGCAGAGCUCGACACUGCGUGGCAAAGUGGCUGUGGCUAGACUGCU [A11G A16U C46U], 0. Under GGCAGAGCUCGAGUCAGCGGGGCAAAGUGGCUGUGGCUAGACUGCC [A11G C13G A14U U20G] stands 0.02. Under GGCAGAGCUCGACACCGCGUGGCAAAGCGGCUGUGGCAAGACUGCA [A11G A16C U28C U38A C46A] stands 0.01. Consider GGCAGAGCUCCACACAGCGUGGCAAAGUGUCUGUGGCAAGACUGCC [A11C G30U U38A], for which the self-cleavage is 0.08. Under GGCAGAGCUCCACACAGCGGGGCAAAGUGGCUGUGGCUAGACUUCC [A11C U20G G44U] stands 0; under GGCAGAGCUCGACACAGCGUGGCAAGGUGGCUGUGGCUAGACUUCC [A11G A26G G44U], 0.01. Under GGCAGAGCUCGACCCAGCGUGGCAAAUUGGCUGUGGCUAGACUGCC [A11G A14C G27U] stands 0.03.

Consider GGCAGAGCUCGACACCGCGUCGCAAAGUGGCUGUGGCUAGACUGCA [A11G A16C G21C C46A], for which the self-cleavage is 0.01. Under GGCAGAGCUCGGCACAGCGUCGCCAAGUGGCGGUGGCUAGACUGCC [A11G A12G G21C A24C U32G] stands 0.01; under GGCAGAGCUCGACACAGCGUGGCAUAGUGGACGUGGAUAGACUGCC [A11G A25U C31A U32C C37A], 0.

As for GGCAGAGCUCGACACAGCGUGGCACAGUGGGUAUGGCUAGACUGUC [A11G A25C C31G G33A C45U], the self-cleavage stood at 0. In the case of GGCAGAGCUCCACACAGCGGGGCAAAGUGGCUGUGGCUGGACUGCA [A11C U20G A39G C46A], the self-cleavage worked out at 0.05. Then GGCAGAGCUCGACAAAGCGUGGCACAGUGGCUGUGGCUAAACUGCC [A11G C15A A25C G40A], with 0.03.

As to GGCAGAGCUCGACACAGCGUGGCACCAUGACUGUGGCCAGACUGCC [A11G A25C A26C G27A G30A U38C], the self-cleavage stood at 0.01. Under GGCAGAGCUCCACACAGCGUGGCAAAGUAGCUGUGGCUAGACUGUC [A11C G29A C45U] stands 0.05; under GGCAGAGCUCCACACAGCGUGGCAAAGUCGCAGUGGAUAGACUGCC [A11C G29C U32A C37A], 0.03. As to GGCAGAGCUCGACACAGCGUGGCGUGGUGGCUGUGGCAAGACUGCC [A11G A24G A25U A26G U38A], the self-cleavage was 0.01. Then GGCAGAGCUCGUCACAGCGUGGCAAAGUGGCUGUGUCUAGACUGCC [A11G A12U G36U], with 0.04; and GGCAGAGCUCGGCAUAGCGUGGCAAAGUGGCAGUGGCUAGACUGCC [A11G A12G C15U U32A], with 0. Then GGCAGAGCUCCACACAGCGUGGCAAAUUGCCUGUGGCUAGACUGCC [A11C G27U G30C], with 0.09; and GGCAGAGCUCGACACAGCGUGGCAACGUGGCUGUGGCUAGACUGCU [A11G A26C C46U], with 0.02; and GGCAGAGCUCGAGACAGCGUGGCAAAGUGGCUAUGGCUAGACUGUC [A11G C13G G33A C45U], with 0.03. Under GGCAGAGCUCCACACAGCGUGGCAAAGAGGCUAUGGCUAGACUGCC [A11C U28A G33A] stands 0; under GGCAGAGCUCGACCCAGCGUGGCAAAGUGGCCGUGGCUAGACUGCC [A11G A14C U32C], 0.02. Consider GGCAGAGCUCGACACAGCGUGGCGACGUGGCUGUGGCUAGACUGCC [A11G A24G A26C], for which the self-cleavage came to 0.

As for GGCAGAGCUCGACAAAGCGUCGCAAAGUGCUUGAGGCUAGACUGCA [A11G C15A G21C G30C C31U U34A C46A], the self-cleavage turned out to be 0.02.

Turning to GGCAGAGCUCCACACAGCGUGGCAAAGUGCCUGUGGCUAGACUGCU [A11C G30C C46U], the self-cleavage is 0.03. As for GGCAGAGCUCGAAACAGCGUAGCAAAGUGGCUGUGGCUAUACUGCC [A11G C13A G21A G40U], the self-cleavage was determined as 0.01. Then GGCAGAGCUCGACGCAGGGUGGCAUAGUGGCUCUGGCUAGACUGCC [A11G A14G C18G A25U G33C], with 0.01; and GGCAGAGCUCGACACUGCGUGGCAAAGUGGCUGUGGCGAGACUGCC [A11G A16U U38G], with 0.

Consider GGCAGAGCUCCACACAGCGUGGCAAAGUCGCUGAGGCUAGACUGCC [A11C G29C U34A], for which the self-cleavage was 0.03. Under GGCAGAGCUCGACAAAGCGUGGCAAAGUGGCUGUGGCUAUACUGCC [A11G C15A G40U] stands 0.02; under GGCAGAGCUCGAAACAGCUUGGCAAAGUGGCUGUGGCUAGUCUGCC [A11G C13A G19U A41U], 0.02; under GGCAGAGCUCGACACAGCGUGGCCAAGUGGCUGUGUCUAGACUACA [A11G A24C G36U G44A C46A], 0.
